Assay results: PubChem BioAssay AID2147 (National Center for Advancing Translational Sciences (NCATS), 2009)
Among all 230,000 compounds or so, about 3,600 (1.6%) were called active. The shares of active, inactive and inconclusive entries below differ from those in the screen. Calls come from the whole dose curve; as a rule, active = well fitted inhibition curve with a large enough effect (not every such curve was filed as active); inconclusive = small, poorly fitted or top-dose-only effect, or another doubt; inactive = no such curve, though single readings can be large or run the other way. Potencies of inconclusive entries are doubtful fits and often do not repeat.

target: Lysine-specific demethylase 4E (Homo sapiens) (UniProt B2RXH2); assay: qHTS Assay for Inhibitors of Human Jumonji Domain Containing 2E (JMJD2E); settings: JMJD2E catalytic domain, FDH-coupled NADH fluorescence (FDH is formaldehyde dehydrogenase); series mostly up to 57.1 µM
Sequence of UniProt B2RXH2 (B2RXH2 whole entry, looked up, the tested form may be a part): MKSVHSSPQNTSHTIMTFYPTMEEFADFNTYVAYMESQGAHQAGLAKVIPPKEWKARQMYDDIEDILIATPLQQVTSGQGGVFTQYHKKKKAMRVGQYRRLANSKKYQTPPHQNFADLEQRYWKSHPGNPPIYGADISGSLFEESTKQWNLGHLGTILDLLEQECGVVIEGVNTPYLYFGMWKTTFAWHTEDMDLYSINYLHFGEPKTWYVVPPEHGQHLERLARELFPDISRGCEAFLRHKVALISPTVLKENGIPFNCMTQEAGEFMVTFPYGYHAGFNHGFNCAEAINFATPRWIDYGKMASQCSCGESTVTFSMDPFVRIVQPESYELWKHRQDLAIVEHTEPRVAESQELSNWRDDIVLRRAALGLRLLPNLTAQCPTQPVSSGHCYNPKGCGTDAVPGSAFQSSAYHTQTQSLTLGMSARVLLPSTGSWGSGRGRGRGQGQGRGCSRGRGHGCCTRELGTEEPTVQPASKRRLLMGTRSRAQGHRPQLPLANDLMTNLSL
Note: nearly all actives have a fitted effect of over 50% in size.
Potency is the fitted concentration of half-maximal effect; tags give direction and shape of the fitted curve.
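Throughout, for activity change, negative = inhibition: 0% = wells with enzyme and -100% = buffer wells without enzyme.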

**Q.** Which Potency does the source give for `O=C(CN1C(=O)CSc2ccc(S(=O)(=O)N3CCCCC3)cc21)NCc1cccnc1` here?
**A.** inconclusive: 3.16 µM [inhibitor, single point]

**Q.** Which Potency does the source give for `CCOC(=O)C1(CCCc2ccccc2)CCN(C(=O)CCc2cnccn2)CC1` here?
**A.** inactive

**Q.** Which Potency does the source give for `COc1cc(C(=O)N(Cc2cccnc2)Cc2cc3cc4c(cc3[nH]c2=O)OCCO4)cc(OC)c1OC` here?
**A.** inconclusive: 25.1 µM [inhibitor, partial curve]

**Q.** Which Potency does the source give for `CCC(C(=O)Nc1cc(Cl)c(OC)cc1OC)c1ccccc1` (stereo not drawn) here?
**A.** inactive

**Q.** Which Potency does the source give for `COc1ccc(Nc2ccccc2N)cc1` here?
**A.** active: 10 µM

**Q.** For `CC(C)OC(=O)c1c2nc3ccccc3nc2n2c1[nH]c(=O)c1ccccc12`, which Potency is on record?
**A.** inconclusive: 3.16 µM [inhibitor, partial curve]

**Q.** For `COc1ccccc1N(Cc1ccccc1)S(=O)(=O)c1cccc(C(=O)Nc2ccc(C(C)=O)cc2)c1`, which Potency is on record?
**A.** inconclusive: 20 µM [inhibitor, partial curve]

**Q.** How did the Potency turn out when `CC(=O)Nc1ccc(C2NC(=O)c3ccccc3O2)cc1` (stereo not drawn) was run?
**A.** inconclusive: 28.2 µM [inhibitor, partial curve]

**Q.** How did the Potency turn out when `O=C(O)CCN1C(=O)c2ccc(NC(=O)C(c3ccccc3)c3ccccc3)cc2C1=O` was run?
**A.** inconclusive: 22.4 µM [inhibitor, partial curve]

**Q.** Which Potency does the source give for `CCn1c(=NC(=O)c2ccc(N3C(=O)CCC3=O)cc2)sc2c(OC)ccc(OC)c21` here?
**A.** inconclusive: 35.5 µM [inhibitor, partial curve]

**Q.** How did the Potency turn out when `CCN(CC)c1ccc(NC(=O)CN2C(=O)CC(C)(C)S(=O)(=O)c3ccccc32)c(C)c1` was run?
**A.** inconclusive: 28.2 µM [inhibitor, single point]

**Q.** How did the Potency turn out when `COc1cc(C(=O)Nc2ccc(N(C)C)cc2)cc(OC)c1OC` was run?
**A.** inactive

**Q.** `Cc1cc(=O)oc2cc(OCC(=O)OCC(=O)N(CCC#N)c3ccccc3)ccc12` was tested. Which Potency did it give?
**A.** inconclusive: 31.6 µM [inhibitor, single point]

**Q.** `NC(=O)C1=C[C@@H](c2ccc(C(F)(F)F)cc2)C[C@@H](OCCCCO)O1` was tested. Which Potency did it give?
**A.** inconclusive: 12.6 µM [inhibitor, partial curve]

**Q.** For `CC1(C)CC(=O)C2=C(C1)Nc1[nH]c(=S)[nH]c(=O)c1C2c1ccccc1` (stereo not drawn), which Potency is on record?
**A.** inconclusive: 11.2 µM [inhibitor, partial curve]

**Q.** With `COc1ccc(-c2nn(-c3ccccc3)cc2/C=N/Nc2ccc(Cl)c(C(=O)O)c2)cc1OC` as the molecule, how does the Potency read?
**A.** inconclusive: 39.8 µM [inhibitor, single point]

**Q.** Which Potency does the source give for `COc1cc2c(cc1OC)CN(C(=S)Nc1ccc(Cl)cc1)CC2` here?
**A.** inactive

**Q.** Which Potency does the source give for `CCN(CC)CCCNc1cc2n(c(=O)n1)CCc1cc(OC)c(OC)cc1-2` here?
**A.** inconclusive: 31.6 µM [inhibitor, partial curve]

**Q.** With `O=C(COc1ccc(S(=O)(=O)N2CCCC2)cc1Cl)N1CCN(c2ccccc2)CC1` as the molecule, how does the Potency read?
**A.** inactive

**Q.** With `COc1ccc(OC)c(S(=O)(=O)Nc2ccc(C)c(C)c2)c1` as the molecule, how does the Potency read?
**A.** inactive

**Q.** For `CCC1(C)Cc2c(sc3[nH]c(=O)[nH]c(=O)c23)CS1` (stereo not drawn), which Potency is on record?
**A.** inconclusive: 31.6 µM [inhibitor, partial curve]

**Q.** How did the Potency turn out when `Cc1ccc(S(=O)(=O)Nc2ccc(=O)n(Cc3ccc(Cl)c(Cl)c3)c2)cc1` was run?
**A.** inconclusive: 39.8 µM [inhibitor, single point]

**Q.** Which Potency does the source give for `COC(=O)c1ccc2c(c1)N(C)S(=O)(=O)c1cnc(SCC(=O)C(C)(C)C)nc1-2` here?
**A.** inconclusive: 31.6 µM [inhibitor, partial curve]

**Q.** How did the Potency turn out when `COc1ccccc1S(=O)(=O)Cc1ccc(C(=O)N2CCOCC2)o1` was run?
**A.** inactive

**Q.** For `Cn1nc(C(=O)Nc2cccc(S(N)(=O)=O)c2)c2ccccc2c1=O`, which Potency is on record?
**A.** inconclusive: 39.8 µM [inhibitor, single point]

**Q.** `CC(C)(C)OC(=O)N1CC(O)CC1C(=O)OCC(=O)c1ccc(Cl)cc1` (stereo not drawn) was tested. Which Potency did it give?
**A.** inconclusive: 14.1 µM [inhibitor, partial curve, poor fit]

**Q.** How did the Potency turn out when `COc1ccccc1C(=O)N1CCC(N2CCN(c3ccccc3)CC2)CC1` was run?
**A.** inconclusive: 31.6 µM [inhibitor, single point]

**Q.** `COCCCn1c(SCc2ccc(OC)cc2)nc2cc(OC)c(OC)cc2c1=N` was tested. Which Potency did it give?
**A.** inconclusive: 39.8 µM [inhibitor, single point]

**Q.** How did the Potency turn out when `COc1cc(C(F)(F)F)nc2ccc(C#CCOC(=O)Nc3ccccc3)cc12` was run?
**A.** inconclusive: 25.1 µM [inhibitor, partial curve]

**Q.** With `CN(C)S(=O)(=O)c1cc(NC(=O)CN2CCCc3ccccc32)ccc1Cl` as the molecule, how does the Potency read?
**A.** inconclusive: 31.6 µM [inhibitor, single point]

**Q.** `CCc1c(C)c(C#N)c2nc3ccccc3n2c1NCc1ccco1` was tested. Which Potency did it give?
**A.** inconclusive: 35.5 µM [inhibitor, partial curve]

**Q.** How did the Potency turn out when `COC(=O)c1ccc(-c2nc3cc(Cl)c(N)cc3s2)cc1` was run?
**A.** active: 2.51 µM

**Q.** How did the Potency turn out when `Fc1ccccc1CNc1ccc(Cl)cc1` was run?
**A.** inactive

**Q.** How did the Potency turn out when `COc1ccc(-c2nnc(NC(=O)c3cc(Cl)ccc3Cl)o2)cc1` was run?
**A.** inconclusive: 35.5 µM [inhibitor, single point]

**Q.** `COc1ccccc1N1C(=O)c2ccccc2NC1c1ccncc1` (stereo not drawn) was tested. Which Potency did it give?
**A.** inconclusive: 28.2 µM [inhibitor, partial curve]

**Q.** With `O=C(Nc1ccc(CN2CCOCC2)cc1)c1ccc(-c2cccc(Cl)c2)o1` as the molecule, how does the Potency read?
**A.** inactive

**Q.** With `CN1/C(=C\C(=O)COc2ccc3c(c2)OCO3)C(C)(C)c2ccccc21` as the molecule, how does the Potency read?
**A.** inconclusive: 35.5 µM [inhibitor, single point]

**Q.** How did the Potency turn out when `O=C(COC(=O)c1ccc2c(c1)OCCO2)NCCC1=CCCCC1` was run?
**A.** inactive

**Q.** For `CCCCS(=O)(=O)N1CCc2nc(-c3ccccc3)c3c(c2C1)CO[C@@H](C)C3`, which activity change, negative = inhibition is on record?
**A.** inactive: 7.23% [at 11.4 µM]

**Q.** With `CC(C)(C)OC(=O)N1CCC[C@H]1C(=O)N/N=C/c1cccc2nccnc12` as the molecule, how does the Potency read?
**A.** inconclusive: 39.8 µM [inhibitor, single point]

**Q.** Which Potency does the source give for `Cc1ccc(CNC(=O)c2cc3c(=O)n4cccc(C)c4nc3n(CC3CCCO3)c2=N)cc1` (stereo not drawn) here?
**A.** inconclusive: 5.62 µM [inhibitor, full curve]

**Q.** With `CCOC(=O)Cn1c2[n+](c3ccccc31)CC(O)CS2` (stereo not drawn) as the molecule, how does the Potency read?
**A.** inactive

**Q.** Which Potency does the source give for `COc1ccc(Br)cc1/C=N/NC(=O)CNC(=O)c1cccnc1` here?
**A.** inconclusive: 28.2 µM [inhibitor, single point]
